In the supplement of paper PMC9446081 one finds relative growth data, which are given here for 59 molecules.

Each structure is given as a SMILES string. The whole screen tested about 39,000 compounds, of which about 220 (0.56%) showed activity. This is one part of the list.
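Further: static incubation at 37 °C against the wild-type strain, values averaged over two biological replicates.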

This assay has as its system Escherichia coli K-12 BW25113. Put plainly: relative growth (OD600 normalised to plate interquartile mean) (fraction); higher = less growth inhibition, active = 0.2 or less. The note with it: 50 µM; LB; incubation time: overnight (16-24 h).
Turning to `CO[C@@H]1CN(C)C(=O)c2cc(NC(=O)Nc3cccc(Cl)c3)ccc2OC[C@@H](C)N(C(=O)Nc2c(C)noc2C)C[C@H]1C`, the relative growth is inactive: 1.05.

With `CC(C)C(=O)Nc1ccc([N+](=O)[O-])c(C(F)(F)F)c1`, the relative growth was inactive: 0.866. Take `C[C@H]1CN([C@@H](C)CO)C(=O)c2cc(C#CC3(O)CCCC3)cnc2O[C@@H]1CN(C)C(=O)C1CCOCC1`: the relative growth was inactive: 0.975.

On to `O=C(C[C@@H]1CC[C@@H](NC(=O)c2ccc(F)cc2)[C@@H](CO)O1)NCc1ccncn1`, for which the relative growth was inactive: 0.991. Next, `Cc1ccccc1N1CCN(S(=O)(=O)C[C@]23CC[C@H](C[C@@H]2NC(=O)[C@@H](N)CCS(C)(=O)=O)C3(C)C)CC1`: inactive: 1.01; `C[C@@H]1CN([C@@H](C)CO)C(=O)Cc2cc(NC(=O)Nc3ccc(F)cc3)ccc2O[C@H]1CN(C)Cc1ccc(C(F)(F)F)cc1`: inactive: 1.04. To `CO[C@@H]1CN(C)C(=O)c2cc(NC(=O)NC3CCCCC3)ccc2OC[C@H](C)N(CCc2ccccc2)C[C@@H]1C` belongs inactive: 1.02; to `Cc1noc(C)c1S(=O)(=O)Nc1ccc2c(c1)C(=O)N([C@@H](C)CO)C[C@@H](C)[C@@H](CN(C)Cc1ccc(C(=O)Nc3ccccc3N)cc1)OCCCC[C@H](C)O2`, inactive: 1.03; to `CCO[C@H]1OC(C(=O)N2CCN(Cc3ccc4c(c3)OCO4)CC2)=C[C@@H](c2ccc(C(F)(F)F)cc2)[C@@H]1CCCOC(=O)NCCCCCC(=O)NO`, inactive: 1.02. Regarding `COCCNC(=O)C[C@@H]1C[C@@H]2c3cc(NC(=O)Nc4ccc(C(F)(F)F)cc4)ccc3O[C@@H]2[C@@H](CO)O1`, the relative growth was inactive: 0.946. As to `C[C@H](CO)N1C[C@H](C)[C@H](CN(C)C(=O)Nc2ccccc2)Oc2ccc(NS(C)(=O)=O)cc2C1=O`, the relative growth was inactive: 0.977. For the molecule `O=C(C[C@@H]1CC[C@@H]2[C@H](COC[C@H](O)CN2C(=O)Nc2cccc(F)c2)O1)NCc1ccccc1Cl`, the relative growth is inactive: 0.929. For the molecule `Cn1c(=O)n2n(c1=O)[C@H](C1CC1)C=C1CN3[C@@H]([C@H](CCn4cc(-c5cccc(/C=C/C(=O)NO)c5)nn4)OC(=O)[C@@H]3Cc3ccccc3)[C@@H]12`, the relative growth is inactive: 1.06. For the molecule `COCC(=O)N1C[C@H](C)[C@@H](OC)CN(C)C(=O)c2cc(NC(=O)c3ccc(OC)cc3)ccc2OC[C@@H]1C`, the relative growth is inactive: 1.06. Next, `C[C@@H]1CN([C@@H](C)CO)C(=O)Cc2cc(NS(=O)(=O)c3cccs3)ccc2O[C@@H]1CN(C)C(=O)Nc1cccc2ccccc12`: inactive: 0.984; `O=C(C[C@@H]1CC[C@H]2[C@@H](COC[C@H](O)CN2S(=O)(=O)c2ccccc2)O1)NCc1ccc(-c2ccccc2)cc1`: inactive: 0.968. Next, `C[C@@H]1CN([C@H](C)CO)C(=O)c2c(c3ccccc3n2C)-c2ccccc2CO[C@H]1CN(C)C(=O)N[C@H](C)c1ccccc1`: inactive: 1. As to `C[C@@H]1CCCCO[C@H](CN(C)CC2CCCCC2)[C@H](C)CN([C@@H](C)CO)C(=O)c2cc(NC(=O)Nc3ccc(C(F)(F)F)cc3)ccc2O1`, the relative growth was inactive: 1.02.

In the case of `C[C@@H]1CN([C@H](C)CO)C(=O)c2cc(NC(=O)Nc3ccccc3)ccc2O[C@@H]1CN(C)S(C)(=O)=O`, the relative growth was inactive: 1.02. Regarding `COc1ccc(NC(=O)Nc2ccc3c(c2)C(=O)N([C@H](C)CO)C[C@@H](C)[C@@H](CN(C)Cc2ccccc2)OCCCC[C@H](C)O3)cc1`, the relative growth was inactive: 1. To `C[C@@H]1CN([C@H](C)CO)C(=O)c2cc(C#CCc3ccccc3)cnc2O[C@@H]1CN(C)C(=O)Cc1cccnc1` belongs inactive: 0.998; to `CSc1n[nH]c2nc(=O)cc(N)n12`, inactive: 1.02; to `Cc1ccc(S(=O)(=O)NCC[C@@H]2CC[C@H](NS(=O)(=O)c3ccccc3Cl)[C@H](CO)O2)cc1`, inactive: 0.938. On to `O=C(c1cc2n(n1)CCCO2)N1CC(O)C1`, for which the relative growth is inactive: 0.989. To `Cc1ccc(S(=O)(=O)Nc2cccc3c2O[C@@H](CN(C)C(=O)NC(C)C)[C@H](C)CN([C@@H](C)CO)C3=O)cc1` belongs inactive: 0.859; to `Cc1ccc(S(=O)(=O)Nc2ccc3c(c2)C(=O)N([C@@H](C)CO)C[C@@H](C)[C@@H](CN(C)C(=O)Nc2c(C)noc2C)OCCCC[C@H](C)O3)cc1`, inactive: 0.983; to `CC(=O)Oc1cc2c(s1)CCN(C(C(=O)C1CC1)c1ccccc1F)C2` (centres undefined), inactive: 1.05.

For the molecule `COc1ccc(S(=O)(=O)N(C)C[C@@H]2Oc3cc(-c4ccccc4OC)ccc3S(=O)(=O)N([C@H](C)CO)C[C@@H]2C)cc1`, the relative growth is inactive: 1.01.

Turning to `COc1ccc(NC(=O)N(C)C[C@@H]2OCCCC[C@@H](C)Oc3ccc(NC(=O)NC(C)C)cc3C(=O)N([C@H](C)CO)C[C@H]2C)cc1`, the relative growth was inactive: 1. To `C[C@@H]1CN([C@@H](C)CO)C(=O)c2cc(NC(=O)Nc3ccc4c(c3)OCO4)ccc2O[C@@H](C)CCCCO[C@@H]1CN(C)C(=O)NC1CCCCC1` belongs inactive: 1.04. To `C[C@H]1CN([C@@H](C)CO)S(=O)(=O)c2ccc(C#Cc3ccc(F)cc3)cc2O[C@H]1CN(C)CC1CC1` belongs inactive: 0.936; to `C[C@H](O)C#Cc1cnc2c(c1)C(=O)N([C@@H](C)CO)C[C@H](C)[C@H](CN(C)C(=O)Nc1ccc(C(F)(F)F)cc1)O2`, inactive: 0.996; to `C[C@@H]1CN([C@H](C)CO)C(=O)CCCn2cc(nn2)CO[C@H]1CN(C)C(=O)Nc1ccnc(N2CCOCC2)c1`, inactive: 0.987.

In the case of `Cn1cnc([N+](=O)[O-])c1Cl`, the relative growth was inactive: 1. On to `O=C(C[C@H]1C[C@H]2c3cc(NC(=O)Cc4ccncc4)ccc3O[C@H]2[C@H](CO)O1)NCCc1ccccc1`, for which the relative growth was inactive: 0.968.

With `COc1cccc(C#Cc2ccc3c(c2)O[C@H](CN(C)S(=O)(=O)c2ccccc2F)[C@@H](C)CN([C@H](C)CO)S3(=O)=O)c1`, the relative growth is inactive: 1.04.

Consider `C[C@@H]1CN([C@H](C)CO)C(=O)c2cc(NC(=O)CCCN(C)C)ccc2O[C@@H]1CN(C)S(=O)(=O)c1ccccc1`, for which the relative growth was inactive: 1.01. As to `CCCN(C)C[C@H]1OCCCC[C@@H](C)Oc2ccc(NC(=O)Nc3ccc(C(F)(F)F)cc3)cc2C(=O)N([C@H](C)CO)C[C@H]1C`, the relative growth is inactive: 0.957. Next, `COC(=O)c1cn(-c2cccc(N)c2)nn1`: inactive: 1.03. Regarding `CC[C@@]12O[C@H]3[C@@H](O)[C@H]4C[C@@H]3[C@@H]1[C@@H]4C(=O)N2C`, the relative growth was inactive: 0.996. To `O=C(C[C@H]1CC[C@@H](NC(=O)C2CC2)[C@@H](CO)O1)NCCCN1CCOCC1` belongs inactive: 1.02; to `C[C@H](CO)N1C[C@H](C)[C@@H](CN(C)C(=O)NC2CCCCC2)Oc2ccc(NC(=O)Nc3ccc(C(F)(F)F)cc3)cc2CC1=O`, inactive: 1.01. Turning to `CCCNC(=O)N1C[C@H](O)COC[C@H]2O[C@@H](CC(=O)N3CCOCC3)CC[C@@H]21`, the relative growth was inactive: 0.986. As to `COc1ccc(NC(=O)Nc2ccc3c(c2)CC(=O)N([C@@H](C)CO)C[C@@H](C)[C@@H](CN(C)Cc2ccc(C(F)(F)F)cc2)O3)cc1`, the relative growth is inactive: 1.

Take `C[C@H](CO)N1C[C@H](C)[C@H](CN(C)C(=O)Nc2ccc(C(F)(F)F)cc2)Oc2ccc(NC(=O)Nc3ccc(C(F)(F)F)cc3)cc2C1=O`: the relative growth is inactive: 0.993. For the molecule `CC[C@H](C)[C@H](N)C1=N[C@H](C(=O)N[C@@H](CC(C)C)C(=O)N[C@@H]2CCC(=O)[O][Zn][O]C(=O)C[C@H]3NC(=O)[C@H](Cc4c[nH]cn4)NC(=O)[C@@H](Cc4ccccc4)NC(=O)[C@H]([C@@H](C)CC)NC(=O)[C@@H](CCCN)NC(=O)[C@H](CCCCNC(=O)[C@H](CC(N)=O)NC3=O)NC(=O)[C@H]([C@@H](C)CC)NC2=O)CS1`, the relative growth was inactive: 0.696.

For `COc1ccccc1S(=O)(=O)N[C@@H]1CC[C@H](CCNC(=O)C2CC2)O[C@@H]1CO`, the relative growth was inactive: 1.

In the case of `O=C(N[C@H]1C=C[C@@H](CC(=O)N2CCOCC2)O[C@H]1CO)c1ccccn1`, the relative growth is inactive: 0.978. Next, `C[C@H](CO)N1C[C@H](C)[C@H](CN(C)S(C)(=O)=O)Oc2ncc(C#Cc3cccnc3)cc2C1=O`: inactive: 0.988; `OCCN1C[C@H](O)[C@@H](O)[C@H](O)[C@H]1CO`: inactive: 0.993; `C[C@H](CO)N1C[C@H](C)[C@H](CN(C)Cc2ccc(C(F)(F)F)cc2)OCCCC[C@H](C)Oc2ccc(NC(=O)Cc3ccccc3)cc2C1=O`: inactive: 1.02. Regarding `Cc1ccc(S(=O)(=O)Nc2ccc3c(c2)CC(=O)N([C@@H](C)CO)C[C@@H](C)[C@H](CN(C)C(=O)NC(C)C)O3)cc1`, the relative growth is inactive: 1.01. To `Cc1ccc(S(=O)(=O)N(C)C[C@@H]2OCCCC[C@H](C)Oc3ccc(NS(=O)(=O)c4ccc(Cl)cc4)cc3C(=O)N([C@@H](C)CO)C[C@@H]2C)cc1` belongs inactive: 1.03; to `CNC[C@H]1Oc2ccc(NC(=O)Cn3cnnn3)cc2C(=O)N([C@H](C)CO)C[C@H]1C`, inactive: 1.01; to `CC(C)(O)C1CCC(C)(C2C(O)CC3(C)C4CC(OC5OC(CO)C(O)C(O)C5O)C5C(C)(C)C(OC6OCC(O)C(O)C6O)CCC56CC46CCC23C)O1` (centres undefined), inactive: 0.914. In the case of `C[C@H]1CN([C@@H](C)CO)C(=O)c2cccc(NC(=O)C3CC3)c2O[C@@H]1CN(C)S(=O)(=O)c1cn(C)cn1`, the relative growth is inactive: 1. For `O=C(N[C@H]1C=C[C@@H](CC(=O)N2CCOCC2)O[C@@H]1CO)c1ccc2c(c1)OCO2`, the relative growth was inactive: 0.961.

Consider `C[C@@H]1CCCCO[C@H](CN(C)Cc2ccccc2)[C@@H](C)CN([C@@H](C)CO)C(=O)c2cc(NC(=O)Cc3ccccc3)ccc2O1`, for which the relative growth was inactive: 0.99. To `C[C@@H]1CN([C@H](C)CO)C(=O)Cc2cc(NC(=O)c3ccncc3)ccc2O[C@H]1CN(C)S(=O)(=O)c1ccc(F)cc1` belongs inactive: 0.998.
